# Measurements from publication PMC4336329 (PLoS ONE, 2015).
# Screen size: about 310,000 compounds; about 14,000 (4.5%) showed an effect of 50% or more. Effects have a minus sign here. The list shows a part of the results.
# Target: human ether-à-go-go-related gene (hERG) potassium channel (human, UniProt Q12809)
# Experiment: primary screen, population patch clamp on CHO cells stably expressing hERG
# 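Also: peak tail current of the secondary pulse compared with the same well before compound.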
# human ether-à-go-go-related gene (hERG) potassium channel, sequence (Q12809 whole entry, looked up): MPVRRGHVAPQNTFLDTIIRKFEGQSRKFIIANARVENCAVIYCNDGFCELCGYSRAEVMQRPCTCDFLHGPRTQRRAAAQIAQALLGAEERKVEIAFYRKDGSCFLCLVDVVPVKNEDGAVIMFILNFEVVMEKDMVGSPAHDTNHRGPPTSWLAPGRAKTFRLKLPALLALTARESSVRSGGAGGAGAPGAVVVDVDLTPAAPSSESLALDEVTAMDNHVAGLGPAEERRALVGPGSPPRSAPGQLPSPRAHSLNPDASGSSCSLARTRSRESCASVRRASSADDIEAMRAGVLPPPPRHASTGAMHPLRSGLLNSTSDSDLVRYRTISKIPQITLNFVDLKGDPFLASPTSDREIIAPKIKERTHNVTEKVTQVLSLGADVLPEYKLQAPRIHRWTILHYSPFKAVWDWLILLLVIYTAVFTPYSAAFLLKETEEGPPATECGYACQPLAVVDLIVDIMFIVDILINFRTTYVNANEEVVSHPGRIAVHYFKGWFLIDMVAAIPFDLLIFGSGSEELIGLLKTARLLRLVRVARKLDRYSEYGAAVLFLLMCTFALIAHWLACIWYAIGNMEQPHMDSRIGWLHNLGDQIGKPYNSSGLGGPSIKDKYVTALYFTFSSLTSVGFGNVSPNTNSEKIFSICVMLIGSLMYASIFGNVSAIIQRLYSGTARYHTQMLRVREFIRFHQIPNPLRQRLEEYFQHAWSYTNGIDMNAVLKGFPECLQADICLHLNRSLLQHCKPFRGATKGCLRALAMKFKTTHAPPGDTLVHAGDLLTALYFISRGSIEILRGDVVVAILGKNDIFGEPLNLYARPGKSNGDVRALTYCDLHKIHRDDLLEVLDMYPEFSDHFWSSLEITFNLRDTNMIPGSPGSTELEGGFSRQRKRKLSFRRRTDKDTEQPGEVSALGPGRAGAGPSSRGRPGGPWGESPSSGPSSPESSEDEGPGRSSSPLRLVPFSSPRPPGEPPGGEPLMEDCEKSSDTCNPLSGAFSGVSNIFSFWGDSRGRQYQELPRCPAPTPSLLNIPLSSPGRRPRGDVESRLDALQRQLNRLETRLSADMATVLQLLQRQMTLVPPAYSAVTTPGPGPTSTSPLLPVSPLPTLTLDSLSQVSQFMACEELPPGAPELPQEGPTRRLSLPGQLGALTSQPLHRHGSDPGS
row,Compound,"hERG current change (%, negative = inhibition) at 10uM"
1,CCCCCCCCCCCCCCCC[n+]1ccc(/C=N/O)cc1.[Br-],14.9%
2,COCC(C)N1CCC(n2nccc2NC(=O)c2ccccc2Cl)CC1 (stereo not drawn),-47.9%
3,CC(=O)c1ccc(N2CCN(C(=O)Nc3ccc(F)cc3F)CC2)cc1,-24%
4,CC(C(=O)Nc1cccnc1)C1Sc2ccccc2NC1=O (stereo not drawn),2.59%
5,CN1C(=O)OC(C)(C)C1=O,-2.78%
6,O=C(CSc1nnc(COc2ccc(Cl)cc2)o1)N1c2ccccc2CCc2ccccc21,-8.5%
7,O=C(O)C(=O)O.O=S(=O)(c1ccc(Cl)cc1)N1CCC(N2CCOCC2)CC1,-11.5%
8,CCOc1ccc(-c2nnn(CC(=O)NCc3ccc(OC)cc3)n2)cc1OCC,-3.62%
9,COc1ccccc1CN(C)C(=O)c1cc(-c2cccs2)nc2ccccc12,4.13%
10,CC(=O)NCCSc1ccc(S(=O)(=O)N2CCCC2)cn1,12.1%
11,O=C(NCCc1ccccc1)c1ccc2c(c1)OCCO2,24.9%
12,O=C1CC(C(F)(F)C(F)(F)C(F)(F)C(F)(F)F)=Nc2ccccc2N1,2.97%
13,COc1ccc(-c2csc3nc(-c4cccnc4)nc(Cl)c23)cc1OC,6.04%
14,Oc1ccc(C=Nc2ccc(N3CCOCC3)cc2)c(O)c1,10.4%
15,CN1/C(=c2/s/c(=C3/C(=O)N(c4ccccc4)NC3=Nc3ccccc3)n(C)c2=O)C(C)(C)c2ccccc21,13.3%
16,CCC(C)NC(=S)N(Cc1cc2cc(C)ccc2n2nnnc12)CC(C)(C)NC(C)C (stereo not drawn),13.9%
17,COc1ccccc1NC(=S)N(CCCN(C)C)Cc1cc2cc3c(cc2[nH]c1=O)OCO3,33.3%
18,CC(C)(C)c1ccc(NC(=O)Nc2ccc3ccccc3n2)cc1,19%
19,COc1ccc(OC(C)C(=O)NC2CCCCCCC2)cc1 (stereo not drawn),8.42%

row,Compound,"hERG current change (%, negative = inhibition) at 10uM"
1,COc1ccc(S(=O)(=O)N2CC(O)C[C@H]2C(=O)OCC(=O)N2CCCCCC2)cc1 (stereo partly drawn),58.7%
2,Cc1cc(Nc2c(C)cccc2C)n2nc(C)nc2n1,3.66%
3,Cc1[nH]c2ccccc2c1N=Nc1ccccc1F,25.9%
4,N#Cc1nc(Cc2ccccc2)oc1NCCN1CCOCC1,-4.69%
5,COC(=O)c1ccc(NS(=O)(=O)c2ccccc2)o1,24.8%
6,Cc1cc(OC(C)C(=O)NCC2CCC(C(=O)O)CC2)c2c(C)c(C)c(=O)oc2c1 (stereo not drawn),4.69%
7,COc1cc(OC)nc(Oc2cccc(C(F)(F)F)c2)n1,3.89%
8,C=CCn1c(SCC(=O)c2ccc(O)c(O)c2)nnc1-c1ccc(OC)cc1,16.4%
9,NC(=O)CSc1nnc(-c2cccnc2)n1CCc1ccccc1,14%
10,COc1ccc(CN(Cc2ccc(C(=O)O)cc2)C(=S)Nc2ccccc2F)cc1OC,9.99%
11,COc1ccc(/C=N/NC(=O)c2ccc(NS(=O)(=O)c3cccs3)cc2)cc1,1.53%
12,Cc1ccc(C2CC(=O)Nc3cc4c(cc32)OCCO4)s1 (stereo not drawn),11.7%
13,Cc1ccccc1OCCC(=O)Nc1ccc2c(C)cc(=O)oc2c1,19.9%
14,CC(C)=NNc1nc2c(c(=O)n(C)c(=O)n2C)n1CCc1ccccc1,2.38%
15,COc1cc(OC)c(NC(=O)CCNS(=O)(=O)c2cc(Br)cnc2N)cc1Cl,5.03%
16,CCc1ccc(/C=C2\CN(CC)Cc3c2nc2ccccc2c3C(=O)O)cc1,-4.8%
17,CCCNC(=O)C(NS(=O)(=O)c1ccc2c(c1)c(=O)n(C)c(=O)n2C)c1ccccc1 (stereo not drawn),0.525%
18,Nc1ccc(SCc2nc3cccc4c3n2CCC4)cc1,-20.7%
19,O=C(c1cc(-c2ccc(Cl)cc2)on1)N1CCCC1,-4.61%

row,Compound,"hERG current change (%, negative = inhibition) at 10uM"
1,Cc1cc(SCc2c(F)cccc2Cl)nc(=O)[nH]1,4.83%
2,Cc1ccc(S(=O)(=O)NC(=O)c2cc(C)n(-c3ccc(N(C)C)cc3)c2C)cc1,-25.2%
3,Cc1csc(NC(=O)CSc2nnc(C)s2)n1,9.23%
4,O=C(NCC1CCCCC1)c1cccc(Br)c1,-3.31%
5,COc1ccccc1-c1nc(C#N)c(N2CCC(C(N)=O)CC2)o1,1.14%
6,O=C(NC1CCCc2c1cnn2-c1cc(F)cc(F)c1)c1ccccn1 (stereo not drawn),-52.4%
7,CCC(C(=O)NC1CCCC1)N(C(=O)Cn1nnc(-c2ccc(OC)c(OC)c2)n1)c1cccc(O)c1 (stereo not drawn),0.163%
8,O=C(O)c1ccc(-n2c(=O)c3ccccc3c3ccccc3c2=O)cc1,14.4%
9,CN1C(=O)Cc2cc(S(=O)(=O)N3CCN(c4ccc(Cl)cc4)CC3)ccc21,-2.2%
10,COc1cc(CNCCc2ccc(S(N)(=O)=O)cc2)ccc1OCC(=O)NC(C)(C)C.Cl,9.88%
11,Cc1cc(C)nc(-n2nc(C)cc2NC(=O)CN2CCCC2)n1,-34.1%
12,Cc1cccc(Oc2nc(-c3ccccn3)nc3ccccc23)c1,-12.1%
13,COc1ccc(NC(=S)Nc2ccccc2F)c(OC)c1,19.9%
14,CN1C(=O)CSC1=NC12CC3CC(CC(C3)C1)C2,-6.85%
15,COc1ccc(S(=O)(=O)N2CCOC2CNC(=O)C(=O)NCCc2ccc(S(N)(=O)=O)cc2)cc1 (stereo not drawn),19%
16,CSc1ccc(C(=O)C2CCCN(S(=O)(=O)N(C)C)C2)cc1 (stereo not drawn),10.5%
17,CC(C)CC(=O)N=Nc1c(O)[nH]c2ccccc12,2.7%
18,Cc1nc(C(=O)N2CCOCC2)sc1C1(C)CC(c2ccccc2)=NO1 (stereo not drawn),-7.45%
19,COc1ccc(-n2c(C)cc(/C=C3\C(=N)N4N=C(CC(=O)N5CCOCC5)SC4=NC3=O)c2C)cc1,8.34%
